7 molecules from patent publication US20100260668A1 (published 2010) can be followed below.

Broadly, the EC50 is the concentration that produces a half-maximal response. A lower EC50 goes with an effect from little substance.

In one test the target is T1, CD-19 (human, UniProt P15391 20-556).
T1 construct: whole, on cells
T1 sequence (looked up): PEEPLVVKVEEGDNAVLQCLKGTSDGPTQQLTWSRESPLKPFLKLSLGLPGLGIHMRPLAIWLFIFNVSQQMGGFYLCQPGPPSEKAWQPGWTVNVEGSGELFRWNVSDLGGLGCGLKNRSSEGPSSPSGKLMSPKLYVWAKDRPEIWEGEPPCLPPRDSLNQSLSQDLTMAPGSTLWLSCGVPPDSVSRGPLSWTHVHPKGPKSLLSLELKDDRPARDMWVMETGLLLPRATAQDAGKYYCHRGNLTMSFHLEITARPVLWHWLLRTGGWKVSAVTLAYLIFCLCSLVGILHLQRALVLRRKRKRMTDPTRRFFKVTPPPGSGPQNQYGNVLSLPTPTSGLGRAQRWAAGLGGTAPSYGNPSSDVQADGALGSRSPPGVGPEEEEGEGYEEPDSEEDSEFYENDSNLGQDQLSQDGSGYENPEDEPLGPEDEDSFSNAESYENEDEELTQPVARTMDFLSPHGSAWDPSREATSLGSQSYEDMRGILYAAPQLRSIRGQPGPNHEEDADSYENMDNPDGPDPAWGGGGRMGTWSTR
The test is described as follows: flow cytometry on cells carrying the target, 2 ug/mL; C-terminal VD. Background: A flow cytometer gives signals particle by particle.

The target in test [1] is T2, NRP1 (UniProt O14786 22-923, limits assumed).
T2 construct: whole, on cells; also called neuropilin 1
Briefly: flow cytometry on cells carrying the target, 2 ug/mL; N-terminal VD.

Test [2] concerns the target biotin-labeled human IGF1 (human, UniProt P05019 fragment, biotin-labeled). The test is described as follows: capture ELISA, DVD-Ig captured by anti-human Fc, biotin-labeled IGF1; N-terminal VD. For orientation: In an ELISA, binding on a coated surface is turned into a signal by an enzyme label.
Test [3] concerns the target biotin-labeled human IGF2 (human, UniProt P01344 fragment, biotin-labeled). The test is described as follows: capture ELISA, DVD-Ig captured by anti-human Fc, biotin-labeled IGF2; N-terminal VD.
The target of test [4] is T3, biotinylated VEGF (UniProt P15692-4 27-191, limits assumed, biotinylated).
T3 sequence (looked up): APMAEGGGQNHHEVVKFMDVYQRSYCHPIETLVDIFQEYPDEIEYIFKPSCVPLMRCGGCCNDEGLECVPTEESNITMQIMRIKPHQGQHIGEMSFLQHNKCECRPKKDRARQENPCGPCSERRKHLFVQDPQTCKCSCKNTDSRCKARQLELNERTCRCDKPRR
Briefly: capture ELISA, DVD-Ig captured by anti-human Fc, biotinylated VEGF; C-terminal VD.

Test [5] addresses T4, biotin-labeled human DLL4 extracellular domain (human, UniProt Q9NR61 fragment, biotin-labeled).
T4 construct: extracellular domain
The test is described as follows: capture ELISA, DVD-Ig captured by anti-human Fc, biotin-labeled human DLL4 ECD; N-terminal VD.

The target in another test is T5, PlGF (UniProt P49763-2 21-149, limits assumed).
T5 construct: Bought antigen coated on the ELISA plate; also called Placental GF; placental growth factor
T5 sequence (looked up): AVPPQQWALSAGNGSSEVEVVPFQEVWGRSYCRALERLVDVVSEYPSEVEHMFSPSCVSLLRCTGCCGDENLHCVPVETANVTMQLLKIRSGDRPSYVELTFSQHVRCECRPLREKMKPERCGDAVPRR
Briefly: direct bind ELISA, antigen on plate; C-terminal VD.

In the next test the target is T6, VEGF (UniProt P15692 27-191, limits assumed).
T6 construct: Bought antigen coated on the ELISA plate; also called vascular endothelial growth factor
T6 sequence (looked up): T3 sequence (looked up)
Briefly: direct bind ELISA, antigen on plate; N-terminal VD.

For test [6], the target named is T3, biotinylated VEGF. The test is described as follows: capture ELISA, DVD-Ig captured by anti-human Fc, biotinylated VEGF; N-terminal VD.
In test [7] the target is T2, NRP1. The test is described as follows: flow cytometry on cells carrying the target, 2 ug/mL; C-terminal VD.

B1: DVD001 (bispecific antibody, human IgG1, kappa)
heavy: QVQLQQPGAELVKPGASVKMSCKASGYTFTSYNMHWVKQTPGRGLEWIGAIYPGNGDTSYNQKFKGKATLTADKSSSTAYMQLSSLTSEDSAVYYCARSTYYGGDWYFNVWGAGTTVTVSAASTKGPQVQLQQSGAELVRPGSSVKISCKASGYAFSSYWMNWVKQRPGQGLEWIGQIWPGDGDTNYNGKFKGKATLTADESSSTAYMQLSSLASEDSAVYFCARRETTTVGRYYYAMDYWGQGTSVTVSS[omitted - human IgG1 constant region]
light: QIVLSQSPAILSPSPGEKVTMTCRASSSVSYIHWFQQKPGSSPKPWIYATSNLASGVPVRFSGSGSGTSYSLTISRVEAEDAATYYCQQWTSNPPTFGGGTKLEIKRTVAAPDILLTQTPASLAVSLGQRATISCKASQSVDYDGDSYLNWYQQIPGQPPKLLIYDASNLVSGIPPRFSGSGSGTDFTLNIHPVEKVDAATYHCQQSTEDPWTFGGGTKLEIKRTVAAPSVFIFPPSDEQLKSGTASVVCLLNNFYPREAKVQWKVDNALQSGNSQESVTEQDSKDSTYSLSSTLTLSKADYEKHKVYACEVTHQGLSSPVTKSFNRGEC
notes: DVD-Ig; outer AB001 (CD-20), inner AB006 (CD-19); also called CD-20 and CD-19 DVD-Ig
In the case of B1, the “FACS Geometric Mean C-terminal” value with CD-19 stood at 161.

B2: DVD050 (bispecific antibody, human IgG1, kappa)
heavy: EVQLVESGGGLVQPGGSLRLSCAASGFSFSSEPISWVRQAPGKGLEWVSSITGKNGYTYYADSVKGRFTISADTSKNTAYLQMNSLRAEDTAVYYCARWGKKVYGMDVWGQGTLVTVSSASTKGPEVQLVESGGGLVQPGGSLRLSCAASGYTFTNYGMNWVRQAPGKGLEWVGWINTYTGEPTYAADFKRRFTFSLDTSKSTAYLQMNSLRAEDTAVYYCAKYPHYYGSSHWYFDVWGQGTLVTVSS[omitted - human IgG1 constant region]
light: DIQMTQSPSSLSASVGDRVTITCRASQSISSYLAWYQQKPGKAPKLLIYGASSRASGVPSRFSGSGSGTDFTLTISSLQPEDFATYYCQQYMSVPITFGQGTKVEIKRTVAAPDIQMTQSPSSLSASVGDRVTITCSASQDISNYLNWYQQKPGKAPKVLIYFTSSLHSGVPSRFSGSGSGTDFTLTISSLQPEDFATYYCQQYSTVPWTFGQGTKVEIKRTVAAPSVFIFPPSDEQLKSGTASVVCLLNNFYPREAKVQWKVDNALQSGNSQESVTEQDSKDSTYSLSSTLTLSKADYEKHKVYACEVTHQGLSSPVTKSFNRGEC
notes: DVD-Ig; also called NRP1 and VEGF DVD-Ig
On to B2, for which the “FACS Geometric Mean N-terminal” value in the test with NRP1 [1] was 336.

B3: DVD042 (bispecific antibody, human IgG1, kappa)
heavy: QVQLVQSGAEVKKPGASVKVSCKASGYTFTSYDINWVRQATGQGLEWMGWMNPNSGNTGYAQKFQGRVTMTRNTSISTAYMELSSLRSEDTAVYYCARDPYYYYYGMDVWGQGTTVTVSSASTKGPEVQLVESGGGLVQPGGSLRLSCAASGYTFTNYGMNWVRQAPGKGLEWVGWINTYTGEPTYAADFKRRFTFSLDTSKSTAYLQMNSLRAEDTAVYYCAKYPHYYGSSHWYFDVWGQGTLVTVSS[omitted - human IgG1 constant region]
light: QSVLTQPPSVSAAPGQKVTISCSGSSSNIENNHVSWYQQLPGTAPKLLIYDNNKRPSGIPDRFSGSKSGTSATLGITGLQTGDEADYYCETWDTSLSAGRVFGGGTKLTVLGQPKAAPDIQMTQSPSSLSASVGDRVTITCSASQDISNYLNWYQQKPGKAPKVLIYFTSSLHSGVPSRFSGSGSGTDFTLTISSLQPEDFATYYCQQYSTVPWTFGQGTKVEIKRTVAAPSVFIFPPSDEQLKSGTASVVCLLNNFYPREAKVQWKVDNALQSGNSQESVTEQDSKDSTYSLSSTLTLSKADYEKHKVYACEVTHQGLSSPVTKSFNRGEC
notes: DVD-Ig; also called IGF1,2 / VEGF DVD-Ig; DVD042H
Regarding B3, the EC50 worked out at 2.5 nM in test [2] and 17.6 nM in [3].

B4: DVD044 (bispecific antibody, human IgG1, kappa)
heavy: EVQLVESGGGLVQPGGSLRLSCAASGFTFTDNWISWVRQAPGKGLEWVGYISPNSGFTYYADSVKGRFTISADTSKNTAYLQMNSLRAEDTAVYYCARDNFGGYFDYWGQGTLVTVSSASTKGPEVQLVESGGGLVQPGGSLRLSCAASGYTFTNYGMNWVRQAPGKGLEWVGWINTYTGEPTYAADFKRRFTFSLDTSKSTAYLQMNSLRAEDTAVYYCAKYPHYYGSSHWYFDVWGQGTLVTVSS[omitted - human IgG1 constant region]
light: DIQMTQSPSSLSASVGDRVTITCRASQDVSTAVAWYQQKPGKAPKLLIYSASFLYSGVPSRFSGSGSGTDFTLTISSLQPEDFATTYYCQQSYTGTVTFGQGTKVEIKRTVAAPDIQMTQSPSSLSASVGDRVTITCSASQDISNYLNWYQQKPGKAPKVLIYFTSSLHSGVPSRFSGSGSGTDFTLTISSLQPEDFATYYCQQYSTVPWTFGQGTKVEIKRTVAAPSVFIFPPSDEQLKSGTASVVCLLNNFYPREAKVQWKVDNALQSGNSQESVTEQDSKDSTYSLSSTLTLSKADYEKHKVYACEVTHQGLSSPVTKSFNRGEC
notes: DVD-Ig; also called DLL4 / VEGF DVD-Ig; DVD044H
On to B4, for which the EC50 came to 4.2 nM with biotinylated VEGF [4] and 0.06 nM in [5].

B5: DVD596 (bispecific antibody, human IgG1, kappa)
heavy: EVQLVESGGGLVQPGGSLRLSCAASGYTFTNYGMNWVRQAPGKGLEWVGWINTYTGEPTYAADFKRRFTFSLDTSKSTAYLQMNSLRAEDTAVYYCAKYPHYYGSSHWYFDVWGQGTLVTVSSASTKGPQVQLQQSGAELVKPGASVKISCKASGYTFTDYYINWVKLAPGQGLEWIGWIYPGSGNTKYNEKFKGKATLTIDTSSSTAYMQLSSLTSEDTAVYFCVRDSPFFDYWGQGTLLTVSS[omitted - human IgG1 constant region]
light: DIQMTQSPSSLSASVGDRVTITCSASQDISNYLNWYQQKPGKAPKVLIYFTSSLHSGVPSRFSGSGSGTDFTLTISSLQPEDFATYYCQQYSTVPWTFGQGTKVEIKRTVAAPSVFIFPPDIVLTQSPDSLAVSLGERVTMNCKSSQSLLNSGMRKSFLAWYQQKPGQSPKLLIYWASTRESGVPDRFTGSGSGTDFTLTISSVQAEDVAVYYCKQSYHLFTFGSGTKLEIKRTVAAPSVFIFPPSDEQLKSGTASVVCLLNNFYPREAKVQWKVDNALQSGNSQESVTEQDSKDSTYSLSSTLTLSKADYEKHKVYACEVTHQGLSSPVTKSFNRGEC
notes: HC linker short, LC linker long; also called DVD596VH; DVD596VL
Regarding B5, the EC50 with PlGF was determined as 14.6 nM; in the test with VEGF it was 12.7 nM.

B6: DVD049 (bispecific antibody, human IgG1, kappa)
heavy: EVQLVESGGGLVQPGGSLRLSCAASGYTFTNYGMNWVRQAPGKGLEWVGWINTYTGEPTYAADFKRRFTFSLDTSKSTAYLQMNSLRAEDTAVYYCAKYPHYYGSSHWYFDVWGQGTLVTVSSASTKGPEVQLVESGGGLVQPGGSLRLSCAASGFSFSSEPISWVRQAPGKGLEWVSSITGKNGYTYYADSVKGRFTISADTSKNTAYLQMNSLRAEDTAVYYCARWGKKVYGMDVWGQGTLVTVSS[omitted - human IgG1 constant region]
light: DIQMTQSPSSLSASVGDRVTITCSASQDISNYLNWYQQKPGKAPKVLIYFTSSLHSGVPSRFSGSGSGTDFTLTISSLQPEDFATYYCQQYSTVPWTFGQGTKVEIKRTVAAPDIQMTQSPSSLSASVGDRVTITCRASQSISSYLAWYQQKPGKAPKLLIYGASSRASGVPSRFSGSGSGTDFTLTISSLQPEDFATYYCQQYMSVPITFGQGTKVEIKRTVAAPSVFIFPPSDEQLKSGTASVVCLLNNFYPREAKVQWKVDNALQSGNSQESVTEQDSKDSTYSLSSTLTLSKADYEKHKVYACEVTHQGLSSPVTKSFNRGEC
notes: DVD-Ig; also called VEGF / NRP1 DVD-Ig; DVD049H
On to B6, for which a half-maximal effect with biotinylated VEGF [6] (EC50) was put at 4.8 nM.

B7: DVD049 (bispecific antibody, human IgG1, kappa)
heavy: B6 heavy
light: B6 light
notes: DVD-Ig; also called VEGF and NRP1 DVD-Ig
Regarding B7, the “FACS Geometric Mean C-terminal” value in the test with NRP1 [7] was found to be 352.
